Laboratory results: article PMC3688996
No constants are given. Whether binding was seen depends on the method and setting. Binding seen in cells or lysates may run through a third protein. Some results given as binding are weak or reduced against the parent protein; the word gives no strength.

The chains behind the UniProt entries cited, without tags or fusion partners.
UniProt P27361: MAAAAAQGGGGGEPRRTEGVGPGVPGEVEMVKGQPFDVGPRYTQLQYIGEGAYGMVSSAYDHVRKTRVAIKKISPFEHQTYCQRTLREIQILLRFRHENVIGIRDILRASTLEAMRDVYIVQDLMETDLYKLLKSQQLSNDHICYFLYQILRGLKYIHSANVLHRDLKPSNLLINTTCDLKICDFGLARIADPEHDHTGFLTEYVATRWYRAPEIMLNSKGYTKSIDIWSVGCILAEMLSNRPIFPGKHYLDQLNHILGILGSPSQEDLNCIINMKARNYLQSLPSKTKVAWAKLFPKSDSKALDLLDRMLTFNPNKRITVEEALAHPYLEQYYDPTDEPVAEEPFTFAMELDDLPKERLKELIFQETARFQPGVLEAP
UniProt P28482: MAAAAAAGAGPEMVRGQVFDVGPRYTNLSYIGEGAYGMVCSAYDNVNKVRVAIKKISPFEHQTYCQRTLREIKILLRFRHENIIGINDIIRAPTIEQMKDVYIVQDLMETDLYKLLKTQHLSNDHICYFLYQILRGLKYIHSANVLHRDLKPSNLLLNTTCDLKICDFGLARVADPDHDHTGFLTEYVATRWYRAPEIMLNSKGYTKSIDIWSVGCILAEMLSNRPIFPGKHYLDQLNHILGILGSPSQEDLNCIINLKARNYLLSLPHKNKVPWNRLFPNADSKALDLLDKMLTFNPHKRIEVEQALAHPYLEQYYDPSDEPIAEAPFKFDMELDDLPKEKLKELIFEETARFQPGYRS
UniProt Q05397: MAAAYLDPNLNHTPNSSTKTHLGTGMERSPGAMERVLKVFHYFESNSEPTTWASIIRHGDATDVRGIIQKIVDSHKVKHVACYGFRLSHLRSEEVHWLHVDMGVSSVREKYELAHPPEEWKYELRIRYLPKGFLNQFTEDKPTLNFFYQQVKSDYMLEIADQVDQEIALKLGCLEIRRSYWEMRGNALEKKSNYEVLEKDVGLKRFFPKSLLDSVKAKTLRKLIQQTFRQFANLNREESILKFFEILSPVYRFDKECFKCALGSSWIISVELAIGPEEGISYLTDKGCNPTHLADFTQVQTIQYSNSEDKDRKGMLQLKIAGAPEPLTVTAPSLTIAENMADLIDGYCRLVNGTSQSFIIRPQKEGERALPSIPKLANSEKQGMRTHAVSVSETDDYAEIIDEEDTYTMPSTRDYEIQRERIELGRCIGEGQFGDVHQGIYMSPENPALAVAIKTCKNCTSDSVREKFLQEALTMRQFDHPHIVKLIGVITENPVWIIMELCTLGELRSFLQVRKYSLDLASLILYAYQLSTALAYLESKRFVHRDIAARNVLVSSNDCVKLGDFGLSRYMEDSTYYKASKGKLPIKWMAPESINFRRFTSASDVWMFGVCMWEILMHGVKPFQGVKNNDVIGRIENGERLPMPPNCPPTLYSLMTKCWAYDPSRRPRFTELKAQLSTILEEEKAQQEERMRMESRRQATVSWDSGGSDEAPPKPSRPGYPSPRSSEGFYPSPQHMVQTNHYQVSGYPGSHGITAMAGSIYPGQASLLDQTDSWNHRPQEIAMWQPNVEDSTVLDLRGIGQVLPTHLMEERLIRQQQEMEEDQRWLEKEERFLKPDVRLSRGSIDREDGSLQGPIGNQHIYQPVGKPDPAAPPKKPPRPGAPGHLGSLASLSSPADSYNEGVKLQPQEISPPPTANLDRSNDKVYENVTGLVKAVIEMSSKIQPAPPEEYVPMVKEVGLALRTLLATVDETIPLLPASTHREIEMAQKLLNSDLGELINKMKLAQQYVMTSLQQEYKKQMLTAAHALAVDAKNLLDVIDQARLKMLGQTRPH
UniProt P49023: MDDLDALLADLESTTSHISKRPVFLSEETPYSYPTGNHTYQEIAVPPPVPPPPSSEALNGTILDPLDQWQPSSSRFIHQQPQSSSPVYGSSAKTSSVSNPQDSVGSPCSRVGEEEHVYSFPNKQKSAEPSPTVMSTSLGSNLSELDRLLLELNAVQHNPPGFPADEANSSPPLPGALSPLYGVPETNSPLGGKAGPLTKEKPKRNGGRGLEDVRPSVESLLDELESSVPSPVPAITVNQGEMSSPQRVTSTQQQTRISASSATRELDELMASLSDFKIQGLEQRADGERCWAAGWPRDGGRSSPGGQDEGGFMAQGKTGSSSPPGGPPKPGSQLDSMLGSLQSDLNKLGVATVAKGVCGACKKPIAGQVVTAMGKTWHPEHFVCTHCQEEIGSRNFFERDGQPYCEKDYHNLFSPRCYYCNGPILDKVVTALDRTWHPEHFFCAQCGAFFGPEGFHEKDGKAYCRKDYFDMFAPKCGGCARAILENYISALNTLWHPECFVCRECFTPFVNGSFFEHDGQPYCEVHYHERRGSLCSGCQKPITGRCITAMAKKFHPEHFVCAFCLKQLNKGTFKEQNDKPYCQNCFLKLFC

T1: Nox4 (NADPH oxidase 4), endogenous in human monocyte-derived macrophages (human (endogenous in HMDM)) (UniProt Q9NPH5)
T1 sequence: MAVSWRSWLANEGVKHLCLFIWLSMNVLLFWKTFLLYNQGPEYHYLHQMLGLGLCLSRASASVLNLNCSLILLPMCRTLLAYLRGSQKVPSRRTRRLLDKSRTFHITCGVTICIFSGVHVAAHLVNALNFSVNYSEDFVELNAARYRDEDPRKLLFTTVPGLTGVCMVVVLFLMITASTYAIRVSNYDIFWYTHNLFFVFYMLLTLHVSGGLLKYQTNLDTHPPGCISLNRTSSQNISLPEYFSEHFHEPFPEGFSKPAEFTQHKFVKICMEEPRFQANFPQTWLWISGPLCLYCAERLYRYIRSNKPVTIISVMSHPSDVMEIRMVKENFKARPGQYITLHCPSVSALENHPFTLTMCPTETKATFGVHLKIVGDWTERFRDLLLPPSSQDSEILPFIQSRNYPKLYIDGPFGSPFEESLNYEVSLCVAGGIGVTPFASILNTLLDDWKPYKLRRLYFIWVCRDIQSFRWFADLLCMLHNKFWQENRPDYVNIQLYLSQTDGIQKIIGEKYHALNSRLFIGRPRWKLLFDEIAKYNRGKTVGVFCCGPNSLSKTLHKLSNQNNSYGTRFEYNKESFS


Biological target: T1, Nox4 (NADPH oxidase 4), endogenous in human monocyte-derived macrophages (human (endogenous in HMDM))
Assay: co-IP; HMDM lysate (MES-buffered saline, 1% Triton X-100, 1 mM EDTA, 0.5% NP-40), precleared with Protein G Sepharose; rabbit monoclonal Nox4 antibody or rabbit serum (control), 4°C overnight; Protein G Sepharose; Western blot

| Molecule | binding |
| --- | --- |
| MAPK ERK1 (from UniProt P27361 1-379) (enzyme) | binds |
| MAPK ERK2 (from UniProt P28482 1-360) (enzyme) | binds |
| focal adhesion kinase phosphorylated at tyrosine-397 (from UniProt Q05397 1-1052) (enzyme) | binds |
| paxillin (from UniProt P49023 1-591) | binds |
| p22phox (protein, UniProt P13498 1-195) MGQIEWAMWANEQALASGLILITGGIVATAGRFTQWYFGAYSIVAGVFVCLLEYPRGKRKKGSTMERWGQKYMTAVVKLFGPFTRNYYVRAVLHLLLSVPAGFLLATILGTACLAIASGIYLLAAVRGEQWTPIEPKPRERPQIGGTIKQPPSNPPPRPPAEARKKPSEEEAAVAAGGPPGGPQVNPIPVTDEVV | binds |
| low molecular weight protein tyrosine phosphatase (enzyme, UniProt P24666 1-158) MAEQATKSVLFVCLGNICRSPIAEAVFRKLVTDQNISENWRVDSAATSGYEIGNPPDYRGQSCMKRHGIPMSHVARQITKEDFATFDYILCMDESNLRDLNRKSNQVKTCKAKIELLGSYDPQKQLIIEDPYYGNDSDFETVYQQCVRCCRAFLEKAH | no binding |
